Measured values as given in PubChem BioAssay AID504333 (National Center for Advancing Translational Sciences (NCATS), 2011).
Among all 360,000 compounds or so, about 16,000 (4.4%) were called active. This list was built around the results that the source calls inconclusive (neither active nor inactive); the mix of calls is not that of the screen. The call rests on the fitted dose curve; in most records, active means well fitted inhibition curve with a large enough effect; inconclusive means small, poorly fitted or top-dose-only effect; inactive means no such curve, though single readings can be large or run the other way. Where the call is inconclusive, the potency comes from a doubtful curve fit.

Biological target: Bromodomain adjacent to zinc finger domain protein 2B (Homo sapiens) (UniProt Q9UIF8)
Assay: qHTS Assay for Inhibitors of BAZ2B; further: nearly all actives have a fitted effect of over 60% in size
Settings: AlphaScreen BAZ2B-H3K14Ac peptide displacement; series mostly up to 114 µM
Outline: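 BAZ2B (50 nM) with biotin-H3(5-23)K14Ac peptide (50 nM) in PBS pH 7.4, 0.01% Tween-20, preformed 30 min, then compound 30 min at room temperature; top concentration 110uM. AlphaScreen streptavidin donor/nickel chelate acceptor beads (10 ug/mL final), 20 min dark, signal read.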
Potency means the concentration at half of the fitted maximal effect; tags describe the fitted curve by direction and shape.

Chain of UniProt Q9UIF8 (Q9UIF8 whole entry, looked up, the tested form may be a part): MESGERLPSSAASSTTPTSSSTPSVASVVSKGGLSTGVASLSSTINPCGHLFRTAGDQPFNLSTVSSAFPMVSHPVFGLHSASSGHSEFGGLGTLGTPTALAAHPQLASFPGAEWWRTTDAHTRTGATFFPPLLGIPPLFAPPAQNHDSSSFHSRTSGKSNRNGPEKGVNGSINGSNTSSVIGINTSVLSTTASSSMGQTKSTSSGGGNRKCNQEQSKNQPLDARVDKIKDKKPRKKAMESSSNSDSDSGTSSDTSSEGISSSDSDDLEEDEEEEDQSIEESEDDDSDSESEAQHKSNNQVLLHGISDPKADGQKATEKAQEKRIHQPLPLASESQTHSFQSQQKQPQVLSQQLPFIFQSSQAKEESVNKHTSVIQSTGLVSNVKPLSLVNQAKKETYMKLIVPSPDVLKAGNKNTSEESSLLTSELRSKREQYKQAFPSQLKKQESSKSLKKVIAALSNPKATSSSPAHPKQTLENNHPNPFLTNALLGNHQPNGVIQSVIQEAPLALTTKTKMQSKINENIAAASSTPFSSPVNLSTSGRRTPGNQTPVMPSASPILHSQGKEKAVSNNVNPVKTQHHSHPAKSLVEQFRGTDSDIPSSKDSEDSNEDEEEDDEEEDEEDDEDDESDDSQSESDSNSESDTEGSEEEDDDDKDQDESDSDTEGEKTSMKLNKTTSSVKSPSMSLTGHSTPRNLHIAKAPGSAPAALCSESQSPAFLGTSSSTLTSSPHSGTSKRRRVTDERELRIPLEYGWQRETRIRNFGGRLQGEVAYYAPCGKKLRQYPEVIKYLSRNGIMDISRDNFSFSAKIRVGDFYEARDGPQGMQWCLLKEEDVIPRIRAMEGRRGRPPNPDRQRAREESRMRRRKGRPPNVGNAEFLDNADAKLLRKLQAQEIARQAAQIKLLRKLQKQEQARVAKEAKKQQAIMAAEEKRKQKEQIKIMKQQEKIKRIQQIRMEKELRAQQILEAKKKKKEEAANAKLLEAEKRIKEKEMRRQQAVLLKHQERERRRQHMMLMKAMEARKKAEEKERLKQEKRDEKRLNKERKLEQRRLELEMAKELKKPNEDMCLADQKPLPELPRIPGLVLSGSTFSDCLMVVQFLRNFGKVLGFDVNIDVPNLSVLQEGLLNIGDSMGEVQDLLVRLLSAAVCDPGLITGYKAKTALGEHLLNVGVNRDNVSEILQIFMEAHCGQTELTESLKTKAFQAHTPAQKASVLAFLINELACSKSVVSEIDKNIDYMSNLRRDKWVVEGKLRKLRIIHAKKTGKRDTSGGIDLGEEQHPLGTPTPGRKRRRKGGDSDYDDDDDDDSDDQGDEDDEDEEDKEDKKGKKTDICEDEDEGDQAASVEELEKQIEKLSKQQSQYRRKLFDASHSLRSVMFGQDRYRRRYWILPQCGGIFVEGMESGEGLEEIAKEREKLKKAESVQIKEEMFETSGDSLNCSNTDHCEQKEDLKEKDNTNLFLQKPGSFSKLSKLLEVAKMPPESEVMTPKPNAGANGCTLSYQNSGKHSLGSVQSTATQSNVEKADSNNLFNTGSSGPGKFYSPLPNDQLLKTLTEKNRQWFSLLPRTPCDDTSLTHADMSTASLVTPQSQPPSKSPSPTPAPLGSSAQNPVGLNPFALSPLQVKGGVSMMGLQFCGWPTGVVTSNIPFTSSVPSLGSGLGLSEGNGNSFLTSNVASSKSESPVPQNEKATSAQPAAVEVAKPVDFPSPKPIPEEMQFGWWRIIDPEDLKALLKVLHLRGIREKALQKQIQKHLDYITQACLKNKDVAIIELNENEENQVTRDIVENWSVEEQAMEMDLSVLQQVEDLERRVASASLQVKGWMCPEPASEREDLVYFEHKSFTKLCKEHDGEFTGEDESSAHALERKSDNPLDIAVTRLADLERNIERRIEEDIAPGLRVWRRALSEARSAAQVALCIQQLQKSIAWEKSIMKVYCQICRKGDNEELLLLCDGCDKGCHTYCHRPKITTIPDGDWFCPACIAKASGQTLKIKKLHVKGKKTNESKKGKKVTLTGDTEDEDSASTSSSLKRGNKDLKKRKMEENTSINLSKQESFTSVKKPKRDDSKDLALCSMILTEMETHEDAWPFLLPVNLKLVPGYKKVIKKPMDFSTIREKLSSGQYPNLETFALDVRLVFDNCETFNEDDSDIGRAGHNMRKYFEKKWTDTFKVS

Row | Structure (SMILES) | Potency
1 | COc1ccc(NCc2nc3ccccc3n2C)cc1 | inconclusive: 89.1 µM [inhibitor, single point]
2 | OCCN=c1cc(-c2ccccc2)oc2ccc(Cl)cc12 | inconclusive: 89.1 µM [inhibitor, single point]
3 | O=[N+]([O-])c1ccc(CN2CCN(Cc3c[nH]c4ccccc34)CC2)cc1 | active: 22.4 µM
4 | CCCCN(CCCNC(=O)CN1N=C(c2ccccc2)CCC1=O)c1ccccc1 | inconclusive: 28.2 µM [inhibitor, partial curve]
5 | COc1ccc(NC(=O)C2Cc3ccccc3CN2C(=O)c2ccco2)cc1 (stereo not given) | inconclusive: 79.4 µM [inhibitor, single point]
6 | Cn1c(/N=C/c2c(O)ccc3ccccc23)nc2ccccc21 | active: 56.2 µM
7 | O=C(CSc1nnc(SCc2ccc(Cl)cc2)s1)N/N=C/c1c[nH]c2ccccc12 | active: 35.5 µM
8 | Cc1coc2c1C(=O)C(=O)c1c-2ccc2c1CCCC2(C)C | active: 7.94 µM
9 | Cn1nc(-c2ccccc2)cc1NC(=O)c1cccs1 | inactive
10 | CCOc1cc(C2C(C(=O)OC)=C(C)NC3=C2C(=O)c2ccccc23)c(Br)cc1OC (stereo not given) | inactive
11 | O=C(c1ccc([N+](=O)[O-])cc1)N(Cc1ccccc1)c1ccccn1 | inconclusive: 79.4 µM [inhibitor, single point]
12 | Clc1ccc(Nc2ccc(NCc3ccccc3)nn2)cc1 | inconclusive: 50.1 µM [inhibitor, partial curve]
13 | O=C(Nc1ccccc1F)c1ccc([N+](=O)[O-])s1 | inconclusive: 3.98 µM [inhibitor, partial curve, poor fit]
14 | COc1cc2c(=O)c(C(=O)c3ccc(C)c(C)c3)cn(Cc3ccccc3)c2cc1OC | inconclusive: 44.7 µM [inhibitor, partial curve]
15 | Cc1ccc(CC(=O)N2CCN(c3ccc([N+](=O)[O-])cc3)CC2)cc1 | inconclusive: 44.7 µM [inhibitor, partial curve]
16 | CCCCC(=O)NC(c1ccccc1)c1ccc2cccnc2c1O (stereo not given) | active: 39.8 µM
17 | COc1ccc(NC(=O)CN(C)C(=O)c2ccc(N3CCOCC3)c([N+](=O)[O-])c2)cc1 | inactive
18 | Cc1c(CC(=O)NCc2ccccc2)c(=O)oc2c(C)c(O)ccc12 | inactive
19 | COc1ccc(-c2cc3nc(C)c(CCC(=O)N4CCN(c5ccccc5)CC4)c(C)n3n2)c(OC)c1 | inactive
20 | Cc1ccc(C)c(N2CCN(C(=O)Cn3c(=O)c4cccn4c4ccc(F)cc43)CC2)c1 | inconclusive: 89.1 µM [inhibitor, single point]
21 | CCOC(=O)C1=C(O)c2ccccc2C(=O)/C1=C\c1ccc(C)cc1 | active: 20 µM
22 | Cc1nnc(NC(=O)CS(=O)(=O)Cc2ccccc2)s1 | inactive
23 | COc1ccc(-c2ccc(CCC(=O)O)n2CC2CCCO2)cc1 (stereo not given) | inconclusive: 89.1 µM [inhibitor, single point]

Row | Structure (SMILES) | Potency
24 | CCCCCNc1nc2sc3c(c2c(=O)n1-c1cccc(Cl)c1)CCN(C)C3 | inactive
25 | COc1cccc(N2CCN(C(=O)c3ccc(Cl)c(NC4=NC5CS(=O)(=O)CC5S4)c3)CC2)c1 (stereo not given) | inconclusive: 89.1 µM [inhibitor, single point]
26 | Clc1ccc(-c2csc(=Nc3ccccc3)n2Cc2ccc3c(c2)OCO3)cc1 | inconclusive: 3.98 µM [inhibitor, partial curve, poor fit]
27 | Cc1ccccc1NC(=O)CN1C(=O)c2cccnc2Oc2ccc(Cl)cc21 | inconclusive: 89.1 µM [inhibitor, single point]
28 | O=C(Nc1ccc2c(c1)OCO2)C1CCN(S(=O)(=O)c2cccs2)CC1 | inconclusive: 50.1 µM [inhibitor, partial curve]
29 | CC(C)(C)NC(=O)Cn1c(SCC(=O)NC2CC2)nc2ccccc21 | inactive
30 | COc1cccc(N2CC(C(=O)Nc3nnc(SCC(=O)NCc4ccco4)s3)CC2=O)c1 (stereo not given) | inconclusive: 44.7 µM [inhibitor, partial curve]
31 | COc1ccc(NC(=O)C2CCCN(CCCc3ccccc3)C2)cc1OCC(C)C (stereo not given) | inconclusive: 89.1 µM [inhibitor, single point]
32 | Cc1cccc(S(=O)(=O)Nc2cccc(-c3cn4ccsc4n3)c2)c1 | inconclusive: 44.7 µM [inhibitor, partial curve]
33 | CCOC(=O)N1CCN(S(=O)(=O)N2CCCC(C(=O)NCc3cc(OC)ccc3OC)C2)CC1 (stereo not given) | inactive
34 | C/C(=N\NC(=O)C(N)=O)c1ccc(NC(=O)c2cccs2)cc1 | inconclusive: 50.1 µM [inhibitor, partial curve]
35 | Cc1cc(=O)[nH]c(/N=C(\N)Nc2cccc3ccccc23)n1 | active: 56.2 µM
36 | Cc1ccc(C(=O)CSC2=C(C#N)C(c3ccco3)C3=C(CC(C)(C)CC3=O)N2)cc1 (stereo not given) | inconclusive: 31.6 µM [inhibitor, single point]
37 | O=C(N/N=C/c1ccccc1C(=O)O)c1ccc(COc2cccc3cccnc23)cc1 | inconclusive: 50.1 µM [inhibitor, partial curve]
38 | O=C(CNS(=O)(=O)c1cccs1)NCCc1ccc(Cl)cc1 | inactive
39 | COCC(=O)N(Cc1cc2cc(C)ccc2[nH]c1=O)c1ccccc1 | inactive
40 | CNC(=S)N/N=C1\C(=O)c2cccc3cccc1c23 | inconclusive: 22.4 µM [inhibitor, full curve, poor fit]
41 | COc1ccc(C2=NO[C@@H]3[C@@H]4C[C@@H]([C@H]5C(=O)N(C)C(=O)[C@@H]45)[C@H]23)c(OC)c1 | inactive
42 | Cc1cc(C)n2nc(C(=O)Nc3ccc(N4CCOCC4)cc3)nc2n1 | inactive
43 | Cc1cccc(OCCSc2nc3ccccc3n2CC(=O)N2CCCCC2)c1C | inconclusive: 22.4 µM [inhibitor, full curve]
44 | N#CC1=C(N)N(c2ccccc2)C(c2ccco2)C1(C#N)C#N (stereo not given) | inconclusive: 44.7 µM [inhibitor, partial curve]
45 | Cc1[nH]c2ccccc2c1-c1nc2ccccc2[nH]1 | inconclusive: 56.2 µM [inhibitor, partial curve]
